# Measured values as given in the supplement of paper PMC8728848.
# The other results are listed elsewhere or left out.
# Columns and labels:
# Experiment in all cases: glycan array binding signal (z-score within array); higher = stronger binding
# Conditions in all cases: glycan notation: IUPAC condensed, linker removed
# [1] = biological target: Gal(b1-4)GlcNAc(b1-6)Gal(b1-4)GlcNAc
# Procedure, shortened: (§1)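 Columns mapping to the same glycan were averaged after glycan names were converted to IUPAC-condensed notation. The data come from 3228 arrays in the Consortium for Functional Glycomics database, limited to those with an available protein sequence. Binding is reported as a within-array Z-score averaged across arrays of one protein sequence and across linkers.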
# [2] = biological target: Gal(b1-4)GlcNAc(b1-6)Gal(b1-4)GlcNAc(b1-6)GalNAc
# Procedure, shortened: as §1
# [3] = biological target: Gal(b1-4)GlcNAc(b1-6)GalNAc
# Procedure, shortened: as §1
# [4] = biological target: Gal(b1-4)GlcNAc(b1-6)[Gal(b1-3)]GalNAc
# Procedure, shortened: as §1
# [5] = biological target: Gal3S(b1-3)GalNAc
# Procedure, shortened: as §1
# [6] = biological target: Gal3S(b1-3)GlcNAc
# Procedure, shortened: as §1
# [7] = biological target: Gal3S(b1-3)[Fuc(a1-4)]GlcNAc
# Procedure, shortened: as §1
# [8] = biological target: Gal3S(b1-4)Glc
# Procedure, shortened: as §1
# [9] = biological target: Gal3S(b1-4)Glc6S
# Procedure, shortened: as §1
# [10] = biological target: Gal3S(b1-4)GlcNAc
# Procedure, shortened: as §1
# [11] = biological target: Gal3S(b1-4)GlcNAc6S
# Procedure, shortened: as §1
# [12] = biological target: Gal3S(b1-4)[Fuc(a1-3)]Glc
# Procedure, shortened: as §1
# [13] = biological target: Gal3S4S(b1-4)GlcNAc
# Procedure, shortened: as §1
# [14] = biological target: Gal3S6S(b1-4)GlcNAc
# Procedure, shortened: as §1
# [15] = biological target: Gal3S6S(b1-4)GlcNAc6S
# Procedure, shortened: as §1
# [16] = biological target: Gal4S(b1-4)GlcNAc
# Procedure, shortened: as §1
# [17] = biological target: Gal4S6S(b1-4)GlcNAc
# Procedure, shortened: as §1
# [18] = biological target: Gal6S(b1-4)Glc
# Procedure, shortened: as §1
# [19] = biological target: Gal6S(b1-4)Glc6S
# Procedure, shortened: as §1
# [20] = biological target: Gal6S(b1-4)GlcNAc
# Procedure, shortened: as §1
# [21] = biological target: Gal6S(b1-4)GlcNAc6S
# Procedure, shortened: as §1
# [22] = biological target: GalNAc(a1-3)Gal
# Procedure, shortened: as §1
# [23] = biological target: GalNAc(a1-3)GalNAc
# Procedure, shortened: as §1
# [24] = biological target: GalNAc(b1-3)Gal
# Procedure, shortened: as §1
# [25] = biological target: GalNAc(b1-3)Gal(a1-4)Gal(b1-4)GlcNAc
# Procedure, shortened: as §1
# [26] = biological target: GalNAc(b1-3)Gal(a1-4)Gal(b1-4)GlcNAc(b1-3)Gal(b1-4)Glc
# Procedure, shortened: as §1
# [27] = biological target: GalNAc(b1-3)GalNAc
# Procedure, shortened: as §1
# [28] = biological target: GalNAc(b1-4)GlcNAc
# Procedure, shortened: as §1
# [29] = biological target: GalNAc(b1-4)GlcNAc(b1-2)Man(a1-3)[GalNAc(b1-4)GlcNAc(b1-2)Man(a1-6)]Man(b1-4)GlcNAc(b1-4)GlcNAc
# Procedure, shortened: as §1
# [30] = biological target: Glc(a1-4)Glc
# Procedure, shortened: as §1
binder,measurement,setting,value
"Neuropilin-2 (Homo sapiens), O60462 (protein) MDMFPLTWVFLALYFSRHQVRGQPDPPCGGRLNSKDAGYITSPGYPQDYPSHQNCEWIVYAPEPNQKIVLNFNPHFEIEKHDCKYDFIEIRDGDSESADLLGKHCGNIAPPTIISSGSMLYIKFTSDYARQGAGFSLRYEIFKTGSEDCSKNFTSPNGTIESPGFPEKYPHNLDCTFTILAKPKMEIILQFLIFDLEHDPLQVGEGDCKYDWLDIWDGIPHVGPLIGKYCGTKTPSELRSSTGILSLTFHTDMAVAKDGFSARYYLVHQEPLENFQCNVPLGMESGRIANEQISASSTYSDGRWTPQQSRLHGDDNGWTPNLDSNKEYLQVDLRFLTMLTAIATQGAISRETQNGYYVKSYKLEVSTNGEDWMVYRHGKNHKVFQANNDATEVVLNKLHAPLLTRFVRIRPQTWHSGIALRLELFGCRVTDAPCSNMLGMLSGLIADSQISASSTQEYLWSPSAARLVSSRSGWFPRIPQAQPGEEWLQVDLGTPKTVKGVIIQGARGGDSITAVEARAFVRKFKVSYSLNGKDWEYIQDPRTQQPKLFEGNMHYDTPDIRRFDPIPAQYVRVYPERWSPAGIGMRLEVLGCDWTDSKPTVETLGPTVKSEETTTPYPTEEEATECGENCSFEDDKDLQLPSGFNCNFDFLEEPCGWMYDHAKWLRTTWASSSSPNDRTFPDDRNFLRLQSDSQREGQYARLISPPVHLPRSPVCMEFQYQATGGRGVALQVVREASQESKLLWVIREDQGGEWKHGRIILPSYDMEYQIVFEGVIGKGRSGEIAIDDIRISTDVPLENCMEPISAFAGENFKVDIPEIHEREGYEDEIDDEYEVDWSNSSSATSGSGAPSTDKEKSWLYTLDPILITIIAMSSLGVLLGATCAGLLLYCTCSYSGLSSRSCTTLENYNFELYDGLKHKVKMNHQKCCSEA",glycan array binding signal (z-score),[1],-0.761
same,glycan array binding signal (z-score),[2],0.154
same,glycan array binding signal (z-score),[3],-0.223
same,glycan array binding signal (z-score),[4],0.109
same,glycan array binding signal (z-score),[5],-0.396
same,glycan array binding signal (z-score),[6],-0.022
same,glycan array binding signal (z-score),[7],-0.633
same,glycan array binding signal (z-score),[8],-0.532
same,glycan array binding signal (z-score),[9],0.419
same,glycan array binding signal (z-score),[10],0.165
same,glycan array binding signal (z-score),[11],0.03
same,glycan array binding signal (z-score),[12],0.996
same,glycan array binding signal (z-score),[13],-0.032
same,glycan array binding signal (z-score),[14],0.401
same,glycan array binding signal (z-score),[15],0.497
same,glycan array binding signal (z-score),[16],-0.216
same,glycan array binding signal (z-score),[17],1.92
same,glycan array binding signal (z-score),[18],-0.043
same,glycan array binding signal (z-score),[19],0.689
same,glycan array binding signal (z-score),[20],0.357
same,glycan array binding signal (z-score),[21],1.67
same,glycan array binding signal (z-score),[22],0.45
same,glycan array binding signal (z-score),[23],-0.367
same,glycan array binding signal (z-score),[24],-0.285
same,glycan array binding signal (z-score),[25],-0.499
same,glycan array binding signal (z-score),[26],-0.06
same,glycan array binding signal (z-score),[27],-0.901
same,glycan array binding signal (z-score),[28],-0.284
same,glycan array binding signal (z-score),[29],-0.277
same,glycan array binding signal (z-score),[30],-0.194
